About 5,000 (1.2%) of roughly 410,000 compounds were called active. The shares of active, inactive and inconclusive entries below differ from those in the screen. Calls follow the shape of the dose curve; as a rule, active = well fitted inhibition curve with a large enough effect; inconclusive = small, poorly fitted or top-dose-only effect; inactive = no such curve, though single readings can be large or run the other way. Potencies beside an inconclusive call are fits to weak or partial responses and may not hold up.
Assay: qHTS for Inhibitors of TGF-b; also: nearly all actives have a fitted effect of over 65% in size
Conditions: HepG2 CAGA-GFP TGF-b/SMAD3 reporter, GFP fluorescence, 18 h, TGF-beta stimulated, 500 pg/mL final; series mostly up to 46.1 µM; activity, negative = inhibition: at the top concentration
Method in brief: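 HEPG2 CAGA-GFP, 1000 cells/well; 2 h settle, 37 C; cpd via pin tool; TGF-b 500 pg/mL final; 18 h, 37 C; GFP imaging ex488/em500-530; %Activity normalised to -TGF-b and +DMSO controls; CRC fit, curve class.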
% is scaled to controls: 0 for no effect and ±100 for the full control effect; potency is read from the fitted curve at half-maximal effect; tags tell the direction and shape of the fitted curve.

SMILES	Potency	activity, negative = inhibition
COc1ccc(-n2nnnc2S(=O)(=O)CC(=O)N2CCCCC2)cc1	inconclusive: 22.4 µM [inhibitor, single point]	–
CN(/N=C/c1cc(Br)cc(Br)c1O)c1ccccc1	–	inactive: -10.1%
CC(=O)N1CCCc2cc(S(=O)(=O)CCC(=O)N3CCN(c4ccccc4)CC3)ccc21	inconclusive: 35.5 µM [inhibitor, single point]	–
Cc1nn(-c2ccccc2)c(C)c1/C=N/n1c(-c2ccccc2Br)n[nH]c1=S	inconclusive: 11.2 µM [inhibitor, partial curve, poor fit]	–
S=C(c1ccc(-c2ccc(Cl)cc2)o1)N1CCCCC1	–	inactive: -5.01%
O=C(Cn1cnc2ccccc21)N/N=C/C(Br)=C/c1ccccc1	inconclusive: 35.5 µM [inhibitor, partial curve, poor fit]	–
CC1CCC(NC(=O)COc2ccc(C(=O)c3ccccc3)cc2)CC1 (centres undefined)	–	inactive: -23%
CCc1nc2ccc(C(=O)N3CCN(S(=O)(=O)CC)CC3)cn2c1N(C)Cc1cccs1	inconclusive: 5.62 µM [inhibitor, single point]	–
CCSc1nsc(NC(=O)Nc2ccccc2Cl)n1	inconclusive: 4.47 µM [inhibitor, partial curve, poor fit]	–
CC1(C)C(=O)Nc2ccccc2N1C(=O)CSc1nnc2c(Cl)cc(Cl)cn12	–	inactive: 2.36%
COc1cccc(C(=O)Nc2ccc(Cl)c(C(F)(F)F)c2)c1	inconclusive: 35.5 µM [inhibitor, single point]	–
Cc1ccc(S(=O)(=O)CCC(=O)Nc2ccc3nc(C)sc3c2)cc1	inconclusive: 25.1 µM [inhibitor, single point]	–
Cn1c(=O)c2c(ncn2CC(=O)N/N=C/C(Cl)=C/c2ccccc2)n(C)c1=O	inconclusive: 35.5 µM [inhibitor, single point]	–
CCCCS/C(N)=N/N=C/c1ccccc1O	inconclusive: 10 µM [inhibitor, partial curve]	–
COc1ccc(C(=O)Oc2cc(N)n(S(=O)(=O)c3ccc(C)cc3)n2)cc1	–	inactive: 0%
Cc1ccc(NS(=O)(=O)c2ccc3c(c2)CCCN3C(=O)C2CCC2)c(C)c1	inconclusive: 35.5 µM [inhibitor, single point]	–
CC1=NN(C(=O)c2ccncc2)C(=O)C1N=Nc1ccc2ccccc2c1 (centres undefined)	inconclusive: 31.6 µM [inhibitor, single point]	–
CCOc1ccccc1NC(=O)CSc1nc2cc(O)ccc2c(=O)n1-c1ccc(OC)c(OC)c1	inconclusive: 15.8 µM [inhibitor, single point]	–
COC(=O)c1nnn(-c2cccc(C)c2)c1C(=O)OC	inconclusive: 35.5 µM [inhibitor, single point]	–
CCCCC(=O)N(C)c1c(CC)nc2c(OCC(=O)C(C)(C)C)cccn12	–	inactive: -11.5%
COc1ccc(OC)c(S(=O)(=O)N2c3cc(F)ccc3CCC2C)c1 (centres undefined)	–	inactive: -14.9%
Oc1ccc(F)cc1-c1cc(-c2ccc3c(c2)OCCO3)n[nH]1	inconclusive: 35.5 µM [inhibitor, single point]	–

SMILES	Potency	activity, negative = inhibition
Cc1cccc(-c2nc(SCCCOc3ccc(Cl)c(C)c3)n3[nH]c(=O)cc3n2)c1	inconclusive: 7.08 µM [inhibitor, partial curve, poor fit]	–
O=C(CN1CCN(S(=O)(=O)c2ccccc2)CC1)Nc1ccc([N+](=O)[O-])cc1	inconclusive: 35.5 µM [inhibitor, single point]	–
Cc1nn(C)c(C)c1S(=O)(=O)N1CCC(C(=O)NC2CCCc3ccccc32)CC1 (centres undefined)	inconclusive: 35.5 µM [inhibitor, single point]	–
CCOC(=O)C1(Cc2cccc(OC)c2)CCN(Cc2cccn2-c2ccccn2)CC1	active: 3.16 µM	–
COc1ccc([N+](=O)[O-])cc1/C=N/NC(=O)/C(=C\c1cccs1)NC(=O)c1ccccc1	–	inactive: -0.703%
O=C(CCSc1ccc(Cl)c(Cl)c1)NC12CC3CC(CC(C3)C1)C2	inconclusive: 35.5 µM [inhibitor, single point]	–
NS(=O)(=O)c1ccc(NC(=S)N2CCN(c3ccc(Cl)c(Cl)c3)CC2)cc1	inconclusive: 11.2 µM [inhibitor, partial curve, poor fit]	–
Cc1ccc(C(=O)Nc2cccc(C(=O)NC3CCCCC3)c2)cc1	–	inactive: -28.6%
CCCc1[nH][nH]c(=O)c1C(c1ccc(Br)cc1)C(C#N)C#N (centres undefined)	inconclusive: 35.5 µM [inhibitor, single point]	–
CCCC1=C([O-])C2N=CC=CC2=[N+](c2ccccn2)C1=O (centres undefined)	–	inactive: -1.35%
O=C1C=C(NCc2ccc3c(c2)OCO3)CC(c2ccccc2)C1 (centres undefined)	–	inactive: -1.56%
COc1cccc(N2CCN(C3C4CC5CC(C4)CC3C5)CC2)c1 (centres undefined)	inconclusive: 35.5 µM [inhibitor, partial curve, poor fit]	–
Oc1cccc(Nc2ncnc3ccccc23)c1	inconclusive: 35.5 µM [inhibitor, single point]	–
Cc1ccc(SC(=O)c2c([N+](=O)[O-])c(C)nn2C)cc1	–	inactive: -18.1%
CCOC(=O)N1CCc2c(sc(NCc3cc(OC)c(OC)cc3OC)c2C(=O)Nc2ccc(OCC)cc2)C1	inconclusive: 35.5 µM [inhibitor, single point]	–
CCCCNC(=O)CCn1nc(-c2ccc(C)cc2)c2ccccc2c1=O	inconclusive: 7.94 µM [inhibitor, partial curve, poor fit]	–
CCOc1ccc(/C=N/Nc2ccc(Cl)nn2)c(O)c1	inconclusive: 1.12 µM [inhibitor, full curve]	–
Cc1nc2ccccc2c(-c2ccccc2)c1C(=O)c1ccccc1	inconclusive: 22.4 µM [inhibitor, single point]	–
Cc1ccc(O)c(-c2cc(C(F)(F)C(F)F)[nH]n2)c1	inconclusive: 11.2 µM [inhibitor, partial curve, poor fit]	–
Cc1c(Br)cccc1NC(=O)C1(C)CCN1CCc1ccccc1 (centres undefined)	inconclusive: 10 µM [inhibitor, partial curve, poor fit]	–
CCN(CC)C(=O)Cn1cc(SCC(=O)Nc2ccccc2C)c2ccccc21	inconclusive: 10 µM [inhibitor, single point]	–
Cc1nn(-c2ccc([N+](=O)[O-])cc2)c2c1C(c1ccc(OC(F)F)cc1)N1C(=N2)C(=O)Nc2ccccc21 (centres undefined)	inconclusive: 2.51 µM [inhibitor, full curve, poor fit]	–

SMILES	Potency	activity, negative = inhibition
C(=C\c1ccco1)/C1=NN(c2ccccc2)C(c2ccco2)C1 (centres undefined)	inconclusive: 35.5 µM [inhibitor, single point]	–
c1ccc(-c2ccc(CN3C[C@@H]4C(c5ccccc5)C5(c6cccnc6)CC4(C5)[C@H]3c3ccccc3)cc2)cc1 (some centres undefined)	inconclusive: 14.1 µM [inhibitor, single point]	–
COc1ccc(NS(=O)(=O)c2ccc3[nH]c4c(c3c2)CCCC4)cc1Cl	inconclusive: 17.8 µM [inhibitor, single point]	–
CCCCCn1c(-c2ccc(OC)c(OC)c2)nc2ccccc21	inconclusive: 22.4 µM [inhibitor, single point]	–
O=C1COc2ccc(S(=O)(=O)N3CCN(c4cccc(C(F)(F)F)c4)CC3)cc2N1	inconclusive: 28.2 µM [inhibitor, partial curve, poor fit]	–
CC(NCc1ccccc1)C1COc2ccccc2O1 (centres undefined)	–	inactive: 7.93%
Cc1ccc(S(=O)(=O)Nc2cccc3ccccc23)cc1	–	inactive: -7.52%
Cc1ccccc1S(=O)(=O)Nc1nc2ccccc2nc1N1CCOCC1	inconclusive: 35.5 µM [inhibitor, single point]	–
Cc1nc2ccn(Cc3cccs3)c(=O)c2cc1C(=O)Nc1ccccc1	inconclusive: 15.8 µM [inhibitor, single point]	–
O=C(Nc1ccc(S(=O)(=O)N2CCCC2)cc1)c1ccc([N+](=O)[O-])o1	inconclusive: 10 µM [inhibitor, partial curve, poor fit]	–
COC(=O)C1=C[C@@H](C(=O)OC)[C@@H]2C3=C(C(=O)[C@@]2(CC(C)C)NC(=O)c2ccccc2)[C@H](C)n2c(=O)n(-c4ccccc4)c(=O)n2[C@@H]3C1	inconclusive: 10 µM [inhibitor, partial curve, poor fit]	–
CCc1c(C)nc2ncnn2c1N1CCC(C(=O)N2CCN(c3ccc(F)cc3)CC2)CC1	inconclusive: 6.31 µM [inhibitor, single point]	–
COc1ccc(CC(=O)NCC(=O)N/N=C/c2c[nH]c3ccccc23)cc1	inconclusive: 35.5 µM [inhibitor, single point]	–
Cc1nn(-c2ccccc2)c(Cl)c1/C=C/C(=O)c1ccccc1	inconclusive: 35.5 µM [inhibitor, single point]	–
CSc1nc(-c2ccccc2)c(C#N)c(=O)n1C	–	inactive: -10.6%
C=CCn1c(CCCOc2ccc(Cl)cc2Cl)n[nH]c1=S	–	inactive: -2.77%
CCc1ccc(-n2c(Cc3ccccc3)nnc2SCc2nc(-c3cccs3)no2)cc1	inconclusive: 35.5 µM [inhibitor, single point]	–
O=C(NCC(=O)N(Cc1cccs1)C(C(=O)NC1CCCCC1)c1cccnc1)c1ccco1 (centres undefined)	inconclusive: 35.5 µM [inhibitor, single point]	–
COc1cc(C(O)c2nc(/C=C/c3ccc(C(F)(F)F)cc3)cs2)ccc1F (centres undefined)	inconclusive: 17.8 µM [inhibitor, single point]	–
CC(=O)c1ccc(NC(=O)Cn2c3ccccc3c3nc(=O)cc(C)n32)cc1	inconclusive: 35.5 µM [inhibitor, partial curve, poor fit]	–

Source: PubChem BioAssay AID588855 (National Center for Advancing Translational Sciences (NCATS), 2011)
